Values joined by “and” are separate entries in the source; they are usually repeats but may differ in a detail not shown here. Identical values can stand only once. The campaign covered roughly 48,000 compounds. About 1,200 (2.5%) were called active. Another 2% or so got no clear call; they are omitted.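 How the source made its calls: active means activation of at least 60% and not above a set upper limit (about 1 call in 100 departs from these limits); inconclusive means activation of 40% to 60%, or above that upper limit; inactive means activation under 40%.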 The list shows a part of the results.
Each molecule was assayed against Probable G-protein coupled receptor 32 (Homo sapiens) (UniProt O75388) (assay: qHTS for Agonists of Human Resolvin D1 Receptor DRV1). Conditions: CHO-K1 GPR32 beta-arrestin PathHunter luminescence, 90 min; at 76.9 µM; hits give high values; zero percent set by DMSO-only wells.
In short: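 Using DMSO wells as EC0, agonist-induced signal was taken as chemiluminescence from beta-Gal reconstituted upon beta-arrestin recruitment to GPR32 in CHO-K1 cells after 90 min compound treatment.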
Further: 0% is about no effect.

Sequence of UniProt O75388 (O75388 whole entry, looked up): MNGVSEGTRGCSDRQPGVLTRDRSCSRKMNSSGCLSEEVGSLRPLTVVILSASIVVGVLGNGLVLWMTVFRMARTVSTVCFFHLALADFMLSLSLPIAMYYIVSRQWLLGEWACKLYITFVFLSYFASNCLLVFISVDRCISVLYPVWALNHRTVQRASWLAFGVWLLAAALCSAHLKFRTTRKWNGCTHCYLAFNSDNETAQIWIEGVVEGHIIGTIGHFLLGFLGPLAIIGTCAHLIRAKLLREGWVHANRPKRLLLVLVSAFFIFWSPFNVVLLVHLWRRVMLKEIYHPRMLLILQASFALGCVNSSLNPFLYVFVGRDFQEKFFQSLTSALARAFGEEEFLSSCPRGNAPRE

Structure (SMILES)	activation
Cc1ccc2oc3c(c(=O)c2c1)C(c1ccc([N+](=O)[O-])cc1)N(CCCN1CCOCC1)C3=O (configuration not stated)	inactive: -5.5%
CC(C)(C)C(=O)Cn1c(=O)n(-c2ccccc2)c(=O)c2c3c(sc21)CCC3	inactive: 4.76%
Cc1ccc(NC(=O)CN2C(=O)COc3ccc(S(=O)(=O)NC4CCCC4)cc32)cc1Cl	active: 106%
O=C(CN1C(=O)c2cccnc2Oc2ccc(Cl)cc21)NCCc1ccccc1	inactive: -10.8%
O=C(O)Cc1cccc(-c2cc(CCCCCCc3ccc(O[C@H]4O[C@H](CO)[C@@H](O)[C@H](O)[C@@H]4O)c(-c4cccc(CC(=O)O)c4)c3)ccc2O[C@H]2O[C@H](CO)[C@@H](O)[C@H](O)[C@@H]2O)c1	inactive: -21.5%
Cc1cc(NC(=O)CSc2ncc(C(=O)Nc3ccc(Cl)cc3)c(=O)n2C)no1	inactive: -11%
CCOC(=O)c1c(-c2ccc(C)cc2)csc1NC(=O)c1cc(-c2ccc(C)c(F)c2)on1	inactive: -1.49%
CCCCNc1ccc(-c2nc(-c3ccco3)no2)cc1[N+](=O)[O-]	inactive: 10.7%
Cc1ccc(CNC(=O)CN(c2cccc(C)c2C)S(=O)(=O)c2ccccc2)cc1	inactive: -11.5%
NC(Cc1cccc(-c2ccccc2CP(=O)(O)O)c1)C(=O)O (configuration not stated)	inactive: -0.422%
CCC(CC)C(=O)Nc1ccc2nc(SCC(=O)N3CCc4ccccc43)sc2c1	inactive: 23.5%
Cn1c2ccccc2c2cnn(CC(=O)N3CCN(c4cccc(C(F)(F)F)c4)CC3)c(=O)c21	inactive: 13.3%
Cc1cccc(N2CCN(S(=O)(=O)c3cc(Cl)ccc3Cl)CC2)c1C	inactive: -9.27%
CC(=O)c1cccc(NC(=O)C2CCCN(C(=O)c3cnn(-c4ccccc4)c3-n3cccc3)C2)c1 (configuration not stated)	inactive: 4.49%
CCOc1ccc(C(=O)Nc2cccc(NC(=O)c3ccc(C(C)(C)C)cc3)c2)cc1Br	inactive: 15.1%
O=C(c1ccc2c(c1)N(Cc1ccc(F)cc1)C(=O)c1ccccc1S2(=O)=O)N1CCN(Cc2ccccc2)CC1	inactive: 10.7%
Cc1ccc(-c2ccccc2C#N)cc1	inactive: -44.3%
COc1ccc(-c2nc(SCC(=O)Nc3ccc4c(c3)OCCO4)c(-c3ccc(F)cc3)[nH]2)cc1OC	inactive: -21.4%
COc1ccc(CC(=O)NCc2ccc3c(c2)CCN3C(C)=O)cc1	inactive: -19.9%
CC1=C(C(N)=O)C(c2ccc(F)cc2)n2nc(-c3ccccc3Cl)nc2N1 (configuration not stated)	inactive: -19%
COc1ccc(C(=O)NNc2ncnc3c2cnn3-c2ccc(C)c(Cl)c2)cc1	inactive: 7.89%
COc1ccc(NC(=O)c2c(NC(=O)c3ccncc3)sc3c2CCC(C(C)(C)C)C3)cc1 (configuration not stated)	active: 65.7%
COc1cccc(Cn2c(=O)n(CCc3ccccc3)c(=O)c3c2c2cc(OC)ccc2n3C)c1	inactive: -25.9%
Cc1ccc(Cl)cc1NC(=O)C1CCN(S(=O)(=O)c2cccc3nonc23)CC1	inactive: 45%
CCOc1ccc(N(CC(=O)Nc2ccccc2CC)S(=O)(=O)c2c(C)noc2C)cc1	inactive: -19.5%
CC(=O)SC[C@@H](Cc1ccccc1)C(=O)NCC(=O)OCc1ccccc1	inactive: -36.3%

Structure (SMILES)	activation
COc1cc(NC(=O)C(Cc2ccccc2)NS(=O)(=O)c2cccc3nsnc23)cc(OC)c1 (configuration not stated)	inactive: -34%
Cc1cccc(NC(=O)CSc2nc3ccccc3nc2N2CCCCC2)c1C	inactive: -3.18%
O=C(Cn1ccn(-c2ccc(F)c(F)c2)c(=O)c1=O)NCCc1ccccc1	inactive: -10%
COc1ccc(Br)cc1CNC(=O)c1ccc2c(c1)nc1n2CCC(C)C1 (configuration not stated)	inactive: -17.5%
CCCCNc1nc(Oc2ccc(=O)n(C)n2)nc(N2CCOCC2)n1	inactive: 13.4%
Cc1cc(C)cc(NC(=O)c2cc(S(=O)(=O)N3CCC(C)CC3)cn2C)c1	inactive: 4.19%
CC(=O)c1cccc(NC(=O)CCc2c(C)nc3c(c(C)nn3-c3ccccc3)c2C)c1	inactive: 40.3%
COc1ccc(C(=O)c2c(N)c(-c3nc(-c4ccc(OC)cc4)cs3)c3ccccn23)cc1	inactive: 3.06%
O=C(CCC1N=C2c3ccccc3N=C(SCc3cccc(Cl)c3)N2C1=O)N1CCN(c2ccccc2)CC1 (configuration not stated)	inactive: -28.9%
CCOc1ccc(-c2cc3c(=O)n(CC(=O)Nc4cc(F)ccc4C)ccn3n2)cc1	inactive: -4.22%
Cc1cc(C)c2c(=O)cc(C(=O)Nc3c(C)n(C)n(-c4ccccc4)c3=O)oc2c1	inactive: 4.22%
N[C@H](CO)C(=O)O	inactive: -1.34%
CCn1nc(-c2ccccc2)c(-c2ccccc2)c(C(=O)Nc2ccccc2C#N)c1=O	inactive: -19.2%
COc1cc2[nH]c(=O)n(CCC(=O)N3CCN(c4ccc(Cl)cc4)CC3)c(=O)c2cc1OC	inactive: -0.219%
Cc1cc(C)c(/C=C/c2onc(C)c2S(=O)(=O)N2CCC(C(=O)NCc3ccccc3Cl)CC2)c(C)c1	inactive: 0.0655%
COc1cc(OC)c(OC)cc1/C=C/c1nc2cc3ccccc3cc2c(=O)n1-c1ccc(F)c(Cl)c1	inactive: -5.58%
O=C(c1cc(-c2ccccc2O)on1)N1CCCCC1	inactive: -11.5%
CCc1c(C)nc(SCc2nc(-c3ccccc3)no2)[nH]c1=O	inactive: 2.12%
Cc1cc2nc(-c3cccc(NC(=O)C(C)C)c3C)oc2cc1C	inactive: 12.3%
COc1cc(S(N)(=O)=O)cc(C(=O)O)c1OC	inactive: -5.17%
CCN(CC)C(=O)c1sc2c(c1C)c(=O)n(CCc1ccccc1)c(=O)n2Cc1ccc(F)cc1Cl	inactive: -13%
CCOc1ccc(C(=O)Nc2ccc3nn(-c4ccc(OC)c(Cl)c4)nc3c2)cc1	inactive: -7.11%
O=C(c1ccc2c(c1)N(Cc1ccccc1F)C(=O)c1ccccc1S2(=O)=O)N1CCN(c2ccccc2F)CC1	inactive: -5.91%
CCN[C@H]1C[C@H](C)S(=O)(=O)c2sc(S(N)(=O)=O)cc21	inactive: -18.7%
Cc1ccc(OCC(=O)Nc2cccc(-c3nc4ccccc4o3)c2C)cc1C	inactive: -1.4%
COc1ccc2cc(-c3nc(Cl)c4c5c(sc4n3)CC(C)CC5)c(=O)oc2c1 (configuration not stated)	inactive: -14.3%

Structure (SMILES)	activation
O=C(Cn1c(=O)n(-c2cccc(Cl)c2)c(=O)c2sc3ccccc3c21)NC1CCCCC1	inactive: -8.04%
COc1ccccc1NC(=O)c1c(NC(=O)COc2ccccc2)sc2c1CCCCC2	inactive: 1.05%
CNC(=O)C1CCC(Cn2c(=O)c3sccc3n(CC(=O)NCc3ccc(OC)cc3)c2=O)CC1 (configuration not stated)	inactive: -14.9%
O=C(CSCc1ccc(F)cc1)N1CCN(c2ccc(Cl)cc2)CC1	inactive: -3.13%
Clc1ccc(CN2CCC(CNc3ncnc4onc(-c5ccc(Cl)cc5)c34)CC2)cc1	inactive: 37%
CC(C)CC(=O)n1nc(-c2cccnc2)nc1NCc1ccc(F)cc1	inactive: -30.9%
Cc1ccc(NC(=O)CCCn2c(=O)c3cccn3c3ccccc32)cc1C	inactive: -14.7%
COCCCNC(=O)c1ccc(-n2c(-c3ccccc3)cc3c2CCCC3)cc1	inactive: -21.1%
O=C(OCc1cc(=O)n2nc(C3CCCCC3)sc2n1)c1ccccc1Cl	inactive: 20.1%
COc1cccc(-c2nnc(SCC(=O)N3CCC(C)CC3)o2)c1	inactive: -4.76%
Cc1cc(C)n(-c2nc3ccccc3nc2Nc2ccc(Cl)c(C(=O)OC(C)C)c2)n1	inactive: 5.21%
OC[C@H]1O[C@@H]2O[C@H]3[C@H](O)[C@@H](O)[C@@H](O[C@H]4[C@H](O)[C@@H](O)[C@@H](O[C@H]5[C@H](O)[C@@H](O)[C@@H](O[C@H]6[C@H](O)[C@@H](O)[C@@H](O[C@H]7[C@H](O)[C@@H](O)[C@@H](O[C@H]8[C@H](O)[C@@H](O)[C@@H](O[C@H]1[C@H](O)[C@H]2O)O[C@@H]8CO)O[C@@H]7CO)O[C@@H]6CO)O[C@@H]5CO)O[C@@H]4CO)O[C@@H]3CO	inactive: -20.1%
COc1ccc(OCC(=O)OCc2cc(=O)n3nc(-c4cccs4)sc3n2)cc1	inactive: -4.79%
Cc1ccc(CCNC(=O)CCCn2c(=O)c3ccccc3n(Cc3ccccc3C#N)c2=O)cc1	inactive: 7.92%
CCn1cc2c(n1)-c1c(oc(C(=O)Nc3cccc(C)c3C)c1C)CC2	inactive: -13%
Cc1ccc(CNC(=O)CCc2c(C)nc3nc(C)nn3c2C)cc1	inactive: -4.52%
Cc1ccc(OCC(=O)Nc2cccc(OCc3cc(=O)n4cccc(C)c4n3)c2)cc1C	inactive: -14.4%
Cc1ccc(Cl)cc1NC(=O)Cn1c(=O)n(Cc2ccccc2)c(=O)c2oc3ccccc3c21	inactive: -6.42%
Cc1cc(C)cc(NC(=O)CSc2oc(-c3ccccc3)nc2S(=O)(=O)c2ccccc2)c1	inactive: -10.1%
N#Cc1c(C(F)(F)F)cc(-c2cccs2)nc1SCC(=O)Nc1ccccc1F	inactive: -13.7%
CCc1ccc(O)c(C(=O)c2cnc3cc(-c4ccc(C)cc4)nn3c2)c1	inactive: -11%
Cc1cc(C)cc(NS(=O)(=O)c2ccc3[nH]cc(C(=O)NC4CCCCC4)c(=O)c3c2)c1	active: 110%
CCn1cc(S(=O)(=O)c2ccccc2)c(=O)c2cc(F)c(N3CCCC3)cc21	inactive: -5.26%
CCOc1ccc(-c2cc(C(=O)NCc3ccccc3Cl)c3ccccc3n2)cc1	inactive: -22.1%
O=C1Cc2cc(CCN3CCN(c4nsc5ccccc45)CC3)c(Cl)cc2N1	inactive: -29.3% and inactive: -103%
